The results in this text go back to patent US12043670B2, “Anti-BCMA antibody-drug conjugates and methods of use” (Eisai R&D Management Co., Ltd., priority 2020, dated 2024).

B1: AB200-R1H32-R2Vk35 (antibody)
heavy: QVQLVQSGAEVKKPGSSVKVSCKASGGTFSNYWMHWVRQAPGQGLEWMGATYRSHSDTYYNQKFKSRVTITADKSTSTAYMELSSLRSEDTAVYYCARGAIYHGYDVIDNWGQGTLVTVSSASTKGPSVFPLAPSSKSTSGGTAALGCLVKDYFPEPVTVSWNSGALTSGVHTFPAVLQSSGLYSLSSVVTVPSSSLGTQTYICNVNHKPSNTKVDKKVEPKSC
light: DIQMTQSPSSLSASVGDRVTITCRASQSISSYINWYQQKPGKAPKLLIYATSNLQSGVPSRFSGSGSGTDFTLTISSLQPEDFATYYCQQYRRIPWTFGQGTKLEIKRTVAAPSVFIFPPSDEQLKSGTASVVCLLNNFYPREAKVQWKVDNALQSGNSQESVTEQDSKDSTYSLSSTLTLSKADYEKHKVYACEVTHQGLSSPVTKSFNRGEC
B2: AB200-R1H32-R2Vk46 (antibody)
heavy: QVQLVQSGAEVKKPGSSVKVSCKASGGTFSNYWMHWVRQAPGQGLEWMGATYRSHSDTYYNQKFKSRVTITADKSTSTAYMELSSLRSEDTAVYYCARGAIYHGYDVIDNWGQGTLVTVSSASTKGPSVFPLAPSSKSTSGGTAALGCLVKDYFPEPVTVSWNSGALTSGVHTFPAVLQSSGLYSLSSVVTVPSSSLGTQTYICNVNHKPSNTKVDKKVEPKSC
light: DIQMTQSPSSLSASVGDRVTITCRASQSISSYINWYQQKPGKAPKLLIYATSNLQIGVPSRFSGSGSGTDFTLTISSLQPEDFATYYCQQFRRLPWTFGQGTKLEIKRTVAAPSVFIFPPSDEQLKSGTASVVCLLNNFYPREAKVQWKVDNALQSGNSQESVTEQDSKDSTYSLSSTLTLSKADYEKHKVYACEVTHQGLSSPVTKSFNRGEC
B3: AB200-R1H32-R2Vk3 (antibody)
heavy: QVQLVQSGAEVKKPGSSVKVSCKASGGTFSNYWMHWVRQAPGQGLEWMGATYRSHSDTYYNQKFKSRVTITADKSTSTAYMELSSLRSEDTAVYYCARGAIYHGYDVIDNWGQGTLVTVSSASTKGPSVFPLAPSSKSTSGGTAALGCLVKDYFPEPVTVSWNSGALTSGVHTFPAVLQSSGLYSLSSVVTVPSSSLGTQTYICNVNHKPSNTKVDKKVEPKSC
light: DIQMTQSPSSLSASVGDRVTITCRASQSISSYLNWYQQKPGKAPKLLIYATSNLQSGVPSRFSGSGSGTDFTLTISSLQPEDFATYYCQQFRKLPWSFGQGTKLEIKRTVAAPSVFIFPPSDEQLKSGTASVVCLLNNFYPREAKVQWKVDNALQSGNSQESVTEQDSKDSTYSLSSTLTLSKADYEKHKVYACEVTHQGLSSPVTKSFNRGEC
B4: AB200-R1H32-R2Vk5 (antibody)
heavy: QVQLVQSGAEVKKPGSSVKVSCKASGGTFSNYWMHWVRQAPGQGLEWMGATYRSHSDTYYNQKFKSRVTITADKSTSTAYMELSSLRSEDTAVYYCARGAIYHGYDVIDNWGQGTLVTVSSASTKGPSVFPLAPSSKSTSGGTAALGCLVKDYFPEPVTVSWNSGALTSGVHTFPAVLQSSGLYSLSSVVTVPSSSLGTQTYICNVNHKPSNTKVDKKVEPKSC
light: DIQMTQSPSSLSASVGDRVTITCRASQSISSYLNWYQQKPGKAPKLLIYATSNLQIGVPSRFSGSGSGTDFTLTISSLQPEDFATYYCQQFRKLPWSFGQGTKLEIKRTVAAPSVFIFPPSDEQLKSGTASVVCLLNNFYPREAKVQWKVDNALQSGNSQESVTEQDSKDSTYSLSSTLTLSKADYEKHKVYACEVTHQGLSSPVTKSFNRGEC
B5: AB200-R1H32-R2Vk45 (antibody)
heavy: QVQLVQSGAEVKKPGSSVKVSCKASGGTFSNYWMHWVRQAPGQGLEWMGATYRSHSDTYYNQKFKSRVTITADKSTSTAYMELSSLRSEDTAVYYCARGAIYHGYDVIDNWGQGTLVTVSSASTKGPSVFPLAPSSKSTSGGTAALGCLVKDYFPEPVTVSWNSGALTSGVHTFPAVLQSSGLYSLSSVVTVPSSSLGTQTYICNVNHKPSNTKVDKKVEPKSC
light: DIQMTQSPSSLSASVGDRVTITCRASQSISSYINWYQQKPGKAPKLLIYATSNLQIGVPSRFSGSGSGTDFTLTISSLQPEDFATYYCQQYRRIPWTFGQGTKLEIKRTVAAPSVFIFPPSDEQLKSGTASVVCLLNNFYPREAKVQWKVDNALQSGNSQESVTEQDSKDSTYSLSSTLTLSKADYEKHKVYACEVTHQGLSSPVTKSFNRGEC
B6: AB200-R1H32-R2Vk44 (antibody)
heavy: QVQLVQSGAEVKKPGSSVKVSCKASGGTFSNYWMHWVRQAPGQGLEWMGATYRSHSDTYYNQKFKSRVTITADKSTSTAYMELSSLRSEDTAVYYCARGAIYHGYDVIDNWGQGTLVTVSSASTKGPSVFPLAPSSKSTSGGTAALGCLVKDYFPEPVTVSWNSGALTSGVHTFPAVLQSSGLYSLSSVVTVPSSSLGTQTYICNVNHKPSNTKVDKKVEPKSC
light: DIQMTQSPSSLSASVGDRVTITCRASQSISSYINWYQQKPGKAPKLLIYATSNLQIGVPSRFSGSGSGTDFTLTISSLQPEDFATYYCQQYRRLPWSFGQGTKLEIKRTVAAPSVFIFPPSDEQLKSGTASVVCLLNNFYPREAKVQWKVDNALQSGNSQESVTEQDSKDSTYSLSSTLTLSKADYEKHKVYACEVTHQGLSSPVTKSFNRGEC
B7: AB200-R1H32-R2Vk10 (antibody)
heavy: QVQLVQSGAEVKKPGSSVKVSCKASGGTFSNYWMHWVRQAPGQGLEWMGATYRSHSDTYYNQKFKSRVTITADKSTSTAYMELSSLRSEDTAVYYCARGAIYHGYDVIDNWGQGTLVTVSSASTKGPSVFPLAPSSKSTSGGTAALGCLVKDYFPEPVTVSWNSGALTSGVHTFPAVLQSSGLYSLSSVVTVPSSSLGTQTYICNVNHKPSNTKVDKKVEPKSC
light: DIQMTQSPSSLSASVGDRVTITCRASQSISSYLNWYQQKPGKAPKLLIYAASSLQSGVPSRFSGSGSGTDFTLTISSLQPEDFATYYCQQYRRIPWTFGQGTKLEIKRTVAAPSVFIFPPSDEQLKSGTASVVCLLNNFYPREAKVQWKVDNALQSGNSQESVTEQDSKDSTYSLSSTLTLSKADYEKHKVYACEVTHQGLSSPVTKSFNRGEC
B8: AB200-R1H32-R2Vk9 (antibody)
heavy: QVQLVQSGAEVKKPGSSVKVSCKASGGTFSNYWMHWVRQAPGQGLEWMGATYRSHSDTYYNQKFKSRVTITADKSTSTAYMELSSLRSEDTAVYYCARGAIYHGYDVIDNWGQGTLVTVSSASTKGPSVFPLAPSSKSTSGGTAALGCLVKDYFPEPVTVSWNSGALTSGVHTFPAVLQSSGLYSLSSVVTVPSSSLGTQTYICNVNHKPSNTKVDKKVEPKSC
light: DIQMTQSPSSLSASVGDRVTITCRASQSISSYLNWYQQKPGKAPKLLIYAASSLQSGVPSRFSGSGSGTDFTLTISSLQPEDFATYYCQQYRRLPWSFGQGTKLEIKRTVAAPSVFIFPPSDEQLKSGTASVVCLLNNFYPREAKVQWKVDNALQSGNSQESVTEQDSKDSTYSLSSTLTLSKADYEKHKVYACEVTHQGLSSPVTKSFNRGEC
B9: AB200-R1H32-R2Vk36 (antibody)
heavy: QVQLVQSGAEVKKPGSSVKVSCKASGGTFSNYWMHWVRQAPGQGLEWMGATYRSHSDTYYNQKFKSRVTITADKSTSTAYMELSSLRSEDTAVYYCARGAIYHGYDVIDNWGQGTLVTVSSASTKGPSVFPLAPSSKSTSGGTAALGCLVKDYFPEPVTVSWNSGALTSGVHTFPAVLQSSGLYSLSSVVTVPSSSLGTQTYICNVNHKPSNTKVDKKVEPKSC
light: DIQMTQSPSSLSASVGDRVTITCRASQSISSYINWYQQKPGKAPKLLIYATSNLQSGVPSRFSGSGSGTDFTLTISSLQPEDFATYYCQQFRRLPWTFGQGTKLEIKRTVAAPSVFIFPPSDEQLKSGTASVVCLLNNFYPREAKVQWKVDNALQSGNSQESVTEQDSKDSTYSLSSTLTLSKADYEKHKVYACEVTHQGLSSPVTKSFNRGEC

The nature of the data set: ThermoFluor thermostability (Tm). Particulars: Fab fragment; light chain clone paired with heavy chain AB200_R1_VH32. In kind it is physicochemical.
For the molecule B1, the Tm is 77.177 °C. Take B2: the Tm was determined as 80.803 °C.

B3: the Tm came out at 80.665 °C. Turning to B4, the Tm is 80.573 °C.

In the case of B5, the Tm was found to be 77.096 °C. In the case of B6 it was 76.359 °C. In the case of B7 it was 78.238 °C. Consider B8, for which the Tm stood at 78.040 °C.

For B9, the Tm came to 81.115 °C.
